# PubChem BioAssay AID1347073 (National Center for Advancing Translational Sciences (NCATS), 2019)
# The whole screen tested about 45,000 compounds, of which about 200 (0.44%) were called active. Roughly 7% stayed inconclusive and do not appear here. Calls come from the whole dose curve; as a rule, active = well fitted activation curve with a large enough effect; inconclusive = small, poorly fitted or top-dose-only effect; inactive = no such curve, though single readings can be large or run the other way. This is one part of the list.
# Experiment: qHTS of TDP-43 Inhibitors: NCGC Sytravon Library Screen; note: 0% is about no effect; nearly all actives have a fitted effect of over 55% in size
# Settings: yeast TDP-43 toxicity rescue, BacTiter-Glo growth, 24 h; series mostly up to 46.1 µM; growth rescue (activation): at the top concentration
# Outline: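 TDP-43-expressing yeast, pregrown in raffinose, seeded at OD600 0.02 in galactose medium with compound for 24 hr at 30 deg C. Growth read by BacTiter-Glo luminescence, so rescue of toxicity appears as activation.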
row,Structure (SMILES),growth rescue (activation)
1,COc1ccc(-c2c[n+]3c(n2-c2ccc(C)cc2)CCCCC3)cc1,inactive: -7.99%
2,COc1ccccc1N(C(=O)c1snc(C(N)=O)c1N)C(C(=O)NC1CCCC1)c1ccc2ncccc2c1 (stereo not drawn),inactive: 13.7%
3,Cc1ccc(NC(=O)C(=O)NNC(=O)c2ccccc2C)cc1Cl,inactive: 12.8%
4,CCCCCC(=O)N/N=C/c1ccccc1[N+](=O)[O-],inactive: 18.9%
5,O=C(C[n+]1ccc(C(=O)c2ccccc2)cc1)Nc1ccccc1OC(F)F,inactive: 9.85%
6,Cc1ccc(S(=O)(=O)NNc2nnc(C)c(=O)[nH]2)cc1,inactive: 10%
7,CCN(CC)CCNC(=S)Nc1ccc2nc3n(c(=O)c2c1)CCCCC3,inactive: 13.7%
8,COc1cc(OC)cc(C(=O)OCC(=O)NCc2ccc3c(c2)OCO3)c1,inactive: 3.69%
9,O=C(Nc1ccc(F)cc1F)c1cncc(Br)c1,inactive: 26.6%
10,CC(C)[C@H](NS(=O)(=O)c1cccc(C(F)(F)F)c1)C(=O)OCC(N)=O,inactive: 20.9%
11,COC(=O)Cc1ccc(NC(=S)Nc2ccc(N3CCOCC3)cc2)cc1,inactive: -6.46%
12,O=C(CN1CCN(C(=O)c2ccc(OCc3cn4ccccc4n3)cc2)CC1)Nc1cccc(F)c1,inactive: -5.27%
13,O=C(O)c1cccc(N2C(=O)Nc3ccccc3N2O)c1,inactive: -6.45%
14,CC(=O)Nc1ccc(S(=O)(=O)NCC(=O)NCCc2ccc(S(N)(=O)=O)cc2)cc1,inactive: 12.1%
15,CC(=O)NC1=NN(C(C)=O)C(c2ccccn2)S1 (stereo not drawn),inactive: -4.87%
16,CN(C)CCNS(=O)(=O)c1ccc(N2CCN(c3ccc(F)cc3)CC2)c([N+](=O)[O-])c1,inactive: 20%
17,Cc1cc(C)cc(C(=O)NCC(=O)OCC(=O)N(C)C2CCS(=O)(=O)C2)c1 (stereo not drawn),inactive: -21.7%
18,COC(=O)Cn1c(C)nc(=O)c(-c2ccccc2)c1C,inactive: -3.74%
19,COc1cc(CC(=O)NCC(C)(C)N2CCOCC2)cc(OC)c1OC,inactive: -7.03%
20,CCCn1c(=N)n(CC(O)c2ccc(C)cc2)c2ccccc21 (stereo not drawn),inactive: 2.31%
21,Cc1ccc(NS(=O)(=O)c2c(F)cc(F)c(Cl)c2F)cc1S(=O)(=O)N1CCOCC1,inactive: 3.97%
22,COc1cccc(CCc2nnc(CCC(=O)N3CCN(Cc4ccccn4)CC3)o2)c1,inactive: 1.58%
23,COc1ccc(CCNC(=O)c2ccc3c(c2)NC(=O)C(N2CCOCC2)S3)cc1OC (stereo not drawn),inactive: 14%
24,O=C(CCCn1c(=O)c2sccc2n(Cc2ccc(Cl)cc2)c1=O)NCc1ccc2c(c1)OCO2,inactive: 17.5%
25,CCCOC(=O)c1sc2nc3c(cc2c1N)C(=O)CCC3,inactive: 20.9%
26,O=C(NNS(=O)(=O)c1ccccc1)C1CCCCC1,inactive: 1.2%

row,Structure (SMILES),growth rescue (activation)
1,NC(=O)N/N=C/c1ccc(N2CCOCC2)s1,inactive: -35.9%
2,COc1ccc(N2CC(C)Cn3c2nc2c3c(=O)[nH]c(=O)n2C)cc1 (stereo not drawn),inactive: -8.62%
3,CSc1nsc(SCC(=O)Nc2cccc(C(=O)O)c2)n1,inactive: -5.3%
4,COc1ccc(O)c(C2=Nc3ccccc3N=C(c3ccco3)C2)c1,inactive: -3.76%
5,COc1cccc(C(=O)OCC(=O)N2CCc3ccccc3C2)c1OC,inactive: 22.7%
6,O=C(OC1CCOC1=O)c1ccc(Cl)c(S(=O)(=O)N2CCCCC2)c1 (stereo not drawn),inactive: 17.6%
7,Fc1ccccc1/C=N/n1cc(-c2ccccc2)[nH]c1=S,inactive: 11.1%
8,COC(=O)C1(CCSC)NC(c2ccc(O)c(OC)c2)C2C(=O)N(c3ccc(C)cc3)C(=O)C21 (stereo not drawn),inactive: 8.53%
9,COc1cc(S(=O)(=O)N2CCN(C(=O)c3ccccc3)CC2)c(OC)cc1Br,inactive: 13.9%
10,CCC1C(=O)N=C(SCC(=O)Nc2nc3ccccc3s2)NC1=O (stereo not drawn),inactive: -8.29%
11,Nc1ncc(-c2ccccc2)c(-c2ccc(O)cc2O)n1,inactive: -2.75%
12,CCN(CC)c1nc(-c2ccc(C(=O)NN)cc2)nc(-c2ccc(C(=O)NN)cc2)n1,inactive: -6.21%
13,COc1ccc(OCC(=O)N/N=C(\C)CC(=O)Nc2cccc([N+](=O)[O-])c2)cc1,inactive: 16.7%
14,Cc1cc(/C=C2/NC(=O)NC2=O)c(C)n1-c1ccccn1,inactive: -17.2%
15,O=C(COC(=O)[C@@H]1CC(O)CN1S(=O)(=O)c1ccccc1[N+](=O)[O-])Nc1ccc2ccccc2c1 (stereo partly drawn),inactive: 27.5%
16,CCc1nc2nc(C)c(NS(=O)(=O)c3ccc(C)c(C)c3)c(=O)n2[nH]1,inactive: 14.2%
17,Cc1ccc(NC(=O)N2CCCC2C(=O)Nc2c(C)cc(C)cc2C)cc1 (stereo not drawn),inactive: 4.45%
18,COc1ccccc1N(C)S(=O)(=O)c1ccc(C(=O)Nc2ccc(N3CCOCC3)cc2)cc1,inactive: 15.9%
19,N=c1c2c(ncn1Cc1ccco1)Oc1c(ccc3ccccc13)C2c1ccccc1 (stereo not drawn),inactive: 17.3%
20,COc1ccc(CNC(=O)c2ccc(-c3ccc(F)c(F)c3)c3ccoc23)cc1OC,inactive: 13.3%
21,O=C(NCc1cccnc1)c1ccccc1-c1nc(-c2ccccc2)no1,inactive: 0.781%
22,O=C(NC1CCCCCC1)c1cc(-c2ccccn2)nc2ccccc12,inactive: 6.75%
23,COc1ccc(/C=C/C(=O)N/C(=C\c2ccco2)C(=O)NCCc2nc3ccccc3[nH]2)cc1,inactive: 10.2%
24,COc1cc(C)c(Cl)cc1S(=O)(=O)n1ccnc1,inactive: -9.14%
25,CCn1cc([N+](=O)[O-])nc1C,inactive: -25.7%
26,CCCNC(=O)C1(C)CCCN(Cc2ccc(-n3ccnc3)cc2)C1 (stereo not drawn),inactive: 11.3%

row,Structure (SMILES),growth rescue (activation)
1,Nc1c(C(=O)O)sc2nc(-c3ccccc3)cc(-c3ccc(Cl)cc3)c12,inactive: -5.74%
2,COc1cccc(/C=N/NC(=O)CNC(=O)C(c2ccccc2)c2ccccc2)c1O,inactive: -0.51%
3,CCC(=O)N/N=C/c1ccc(-c2ccc([N+](=O)[O-])cc2)o1,inactive: 23.7%
4,N=c1sccn1CC(=O)NC(=O)NC1CCCC1,inactive: 9.55%
5,Cc1cc(Br)ccc1NC(=O)C1C2CCC(O2)C1C(=O)O (stereo not drawn),inactive: -6.91%
6,Cc1ccc(-c2nn(C)c(=O)c3ccccc23)cc1S(=O)(=O)NCCCN(C)C,inactive: 6.78%
7,O=C(Oc1ccc(NC2=NS(=O)(=O)c3ccccc32)cc1)c1cccnc1,inactive: 3.63%
8,Cc1c(C(=O)c2ccc([N+](=O)[O-])cc2)c(=O)n(C)c(=O)n1C,inactive: 19.4%
9,O=C1CN(C(=O)COC(=O)CCC(=O)c2ccc(Cl)cc2)c2ccccc2N1,inactive: 7.9%
10,CC(=O)NCCNc1nc2cc(-c3ccc(Cl)cc3C)sc2c(=O)n1C,inactive: 4.09%
11,Cc1ccc(NC(=O)c2ccc(OCC3CCCO3)cc2)c(C)c1 (stereo not drawn),inactive: 8.01%
12,Cc1cccc(N(C(=O)CCC(=O)Nc2nccs2)C(C(=O)NC(C)(C)C)c2ccc(O)cc2)c1 (stereo not drawn),inactive: 8.35%
13,COC(=O)c1ccc(NC(=O)Nc2ccccc2F)cc1,inactive: -1.18%
14,COc1ccc(/C=C2\CCC/C(=C\C=N\N(C)C)C2=O)cc1,inactive: 15.8%
15,Cn1c(/C=N/Nc2nc3ccccc3[nH]2)nc2ccccc21,inactive: -4.38%
16,O=C(CSc1ccccc1F)NC(=O)c1ccc(Cl)cc1,inactive: 36.7%
17,CCc1nc2ccc(C(=O)NCc3ccc(OC)cc3)cn2c1N(CCC(C)C)CCN(C)C,inactive: 1.06%
18,Cc1nc(OCC(C)C)c2sc3nc4c(cc3c2n1)COC(C)(C)C4,inactive: -6.57%
19,COc1ccc(CCNC(=O)COC(=O)Cc2c[nH]c3ccccc23)cc1OC,inactive: 13.2%
20,O=C(COC(=O)c1cccc(S(=O)(=O)NCc2ccccc2)c1)c1ccc2c(c1)OCCO2,inactive: 1.18%
21,O=C(NC1CCCCC1)C(c1ccccc1F)N(C(=O)c1csnn1)C1CCCC1 (stereo not drawn),inactive: 1.84%
22,Cc1cc(S(=O)(=O)N2CCOCC2)ccc1OCC(=O)Nc1ccccc1F,inactive: 5.2%
23,Cc1ccc(C(=O)COC(=O)c2cn(-c3ccccc3)nc2-c2ccccc2)cc1[N+](=O)[O-],inactive: 20.1%
24,Cc1ccc(C(=O)NC2CCN(CC(=O)NC3CCC(C)CC3)CC2)cc1 (stereo not drawn),inactive: -2.72%
25,COc1ccc(NC(=O)Nc2sc(NS(=O)(=O)c3ccccc3)nc2C)cc1,inactive: -4.9%
26,Cc1ccc2nc3c(cc(C(=O)NCCN4CCOCC4)c(=N)n3CCCN3CCOCC3)c(=O)n2c1,inactive: 7.67%

row,Structure (SMILES),growth rescue (activation)
1,CCOc1ccc(NC(=O)c2ccc(NC(=S)NC3CCCCC3)cc2)cc1,inactive: 21.5%
2,Cn1c(N/N=C2\CCCc3ccccc32)nc2c1c(=O)n(Cc1ccccc1)c(=O)n2C,inactive: 19.9%
3,O=C(c1ccc(CNS(=O)(=O)c2cccc(Cl)c2)cc1)N1CCCC1,inactive: 10.5%
4,COCCN1C[C@@H](CO)O[C@@H](n2cnc3c(NCc4cc(OC)c(OC)c(OC)c4)ncnc32)C1,inactive: 0.755%
5,COc1ccc(N2C(=O)CSC2c2cccc(F)c2)cc1 (stereo not drawn),inactive: 9.5%
6,COc1ccc(OC)c(NC(=O)CSC2=NN3CCCC(=O)N=C3S2)c1,inactive: 6.68%
7,O=C(Cn1c(CO)nc2ccccc21)NCc1ccc2c(c1)OCO2,inactive: 20.4%
8,CC(NC(N)=O)C(=O)Nc1ccc(Cl)c(S(=O)(=O)Nc2ccc(Br)cc2)c1 (stereo not drawn),inactive: 10.6%
9,CCn1c(SCC(=O)N/N=C/C=C/c2ccccc2[N+](=O)[O-])nnc1-c1ccccc1,inactive: 3.98%
10,Cc1ccc(C(=O)NC(=S)Nc2cccc(NC(=O)c3ccccc3Cl)c2)cc1[N+](=O)[O-],inactive: 8.45%
11,COc1cc(SC)ccc1C(=O)NCCNC(=O)c1nonc1N,inactive: -17.6%
12,COc1cccc(C2CC(=O)Nc3n[nH]c(-c4ccccc4)c32)c1OC (stereo not drawn),inactive: 5.02%
13,CC(=O)c1cccc(Nc2ncnc3ccc(Br)cc23)c1,inactive: -15.3%
14,COc1cccc2c1cc1c(=O)n(CC(=O)N3CCCC3)nc(C)n12,inactive: -15.5%
15,CCOc1ccc(C(=O)NCC(=O)OCC(=O)Nc2ccc(C)c(S(=O)(=O)N(C)C)c2)cc1,inactive: -6.99%
16,NS(=O)(=O)c1ccc(CCNC(=O)c2ccc3c(c2)OCO3)cc1,inactive: 7.9%
17,CC1(C(=O)NCc2cccc3ccccc23)CCN1CCc1ccccc1 (stereo not drawn),inactive: 0.736%
18,Cc1noc(C(=O)Nc2cccc(O)c2)c1Cl,inactive: -5.18%
19,CN(Cc1ccccc1)C(=O)C1CCN(S(C)(=O)=O)CC1,inactive: 2.28%
20,O=C(O)CNC(=O)c1ccc(NS(=O)(=O)c2ccc3ccccc3c2)cc1,inactive: -17.1%
21,Cc1ccc(-c2noc(CCCC(=O)NC3CCCC3)n2)cc1,inactive: 7.84%
22,COc1cccc(C(=O)NC2CC3CCCC(C2)N3CC(=O)Nc2ccccc2C(F)(F)F)c1 (stereo not drawn),inactive: -44.1%
23,Cc1nc(NC(=O)c2ccccc2[N+](=O)[O-])sc1C(=O)N(C)C,inactive: 6.31%
24,CC(C)CCNC(=O)CN(Cc1ccccc1)C(=O)CCC(=O)Nc1ccccn1,inactive: -6.03%
25,CN(C)C(=O)c1ccc(Nc2nnc(-c3ccc(O)cc3)c3ccccc23)cc1,inactive: -1.08%
